Measurements: PubChem BioAssay AID1030 (National Center for Advancing Translational Sciences (NCATS), 2008)
Out of some 220,000 compounds screened, about 16,000 (7.3%) were called active. The shares of active, inactive and inconclusive entries below differ from those in the screen. Calls follow the shape of the dose curve; as a rule, active = well fitted inhibition curve with a large enough effect (not every such curve was filed as active); inconclusive = small, poorly fitted or top-dose-only effect, or another doubt; inactive = no such curve, though single readings can be large or run the other way. No potency is given beside an inconclusive call; the fits are too rough.

These molecules were tested against Aldehyde dehydrogenase 1A1 (Homo sapiens) (UniProt P00352) (assay: qHTS Assay for Inhibitors of Aldehyde Dehydrogenase 1 (ALDH1A1)). Conditions: Purified ALDH1A1, NADH fluorescence, propionaldehyde substrate; series mostly up to 75.3 µM.
Potency is read from the fitted curve at half-maximal effect; tags tell the direction and shape of the fitted curve.

UniProt P00352, sequence (P00352 whole entry, looked up): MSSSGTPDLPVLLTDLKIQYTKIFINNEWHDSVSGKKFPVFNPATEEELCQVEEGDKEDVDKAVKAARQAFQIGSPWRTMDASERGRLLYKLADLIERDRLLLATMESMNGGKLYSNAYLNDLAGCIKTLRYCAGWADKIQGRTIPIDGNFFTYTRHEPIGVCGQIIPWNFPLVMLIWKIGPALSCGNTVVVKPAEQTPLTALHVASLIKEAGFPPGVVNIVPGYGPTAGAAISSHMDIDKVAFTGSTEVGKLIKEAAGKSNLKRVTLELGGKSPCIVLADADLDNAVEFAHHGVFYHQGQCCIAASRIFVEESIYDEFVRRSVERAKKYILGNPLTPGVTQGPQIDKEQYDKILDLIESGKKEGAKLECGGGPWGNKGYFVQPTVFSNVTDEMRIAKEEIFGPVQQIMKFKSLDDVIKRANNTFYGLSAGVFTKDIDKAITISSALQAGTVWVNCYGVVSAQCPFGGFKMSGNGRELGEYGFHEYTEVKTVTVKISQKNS

Question: Which Potency does the source give for Cc1[nH]n(-c2ccccc2)c(=O)c1N=Nc1ccccc1O here?
Answer: inactive

Question: Which Potency does the source give for Cc1ccc(C2NC(=O)c3c(sc4c3CCN(C)C4)N2)o1 (centres undefined) here?
Answer: inconclusive [inhibitor, single point]

Question: With CC(C)(C)NC(=O)C(c1ccncc1)N(C(=O)C1CSC(=O)C1)c1ccccc1 (centres undefined) as the molecule, how does the Potency read?
Answer: inactive

Question: With Cc1[nH]nc(SCC(=O)N2CCCCCC2)c1[N+](=O)[O-] as the molecule, how does the Potency read?
Answer: inconclusive [inhibitor, partial curve]

Question: COC(=O)c1cn(C(=O)c2ccc(Br)o2)c2ccccc12 was tested. Which Potency did it give?
Answer: active: 31.6 µM

Question: Which Potency does the source give for CCCS(=O)(=O)Nc1c(C(=O)OC)[nH]c2ccccc12 here?
Answer: inconclusive [inhibitor, single point]

Question: With COC(=O)c1c[nH]n2c(=O)cc(CCl)nc12 as the molecule, how does the Potency read?
Answer: inconclusive [inhibitor, single point]

Question: How did the Potency turn out when O=C(O)c1ccc(NC(=O)c2cccc(N3C(=O)C4C5CCC(C5)C4C3=O)c2)cc1 (centres undefined) was run?
Answer: inactive

Question: For CC(=O)NCCNc1nc(-c2ccc(N(C)C)cc2)nc2ccccc12, which Potency is on record?
Answer: inconclusive [inhibitor, single point]

Question: How did the Potency turn out when N#CCSc1ncccc1-c1nc2ccccc2[nH]1 was run?
Answer: inconclusive [inhibitor, single point]

Question: With c1csc(-c2nc3ccccn3c2NC2CCCCC2)c1 as the molecule, how does the Potency read?
Answer: inconclusive [inhibitor, partial curve]

Question: Which Potency does the source give for O=C1SC(c2ccccc2)=C/C1=C\N1CCCCC1 here?
Answer: inconclusive [inhibitor, partial curve]

Question: Which Potency does the source give for OCCN(Cc1ccccc1)Cc1ccc(Cl)cc1Cl here?
Answer: inconclusive [inhibitor, single point]

Question: For CC(=O)c1cc2c(cc1NC(=O)CN1CCCCC1C)OCO2 (centres undefined), which Potency is on record?
Answer: inconclusive [inhibitor, single point]

Question: How did the Potency turn out when CCn1c(=O)cc(SCC(=O)NCc2ccco2)c2ccccc21 was run?
Answer: inconclusive [inhibitor, partial curve]

Question: Which Potency does the source give for CC(=O)n1cc(C2C(=O)CC(C)(C)CC2=O)c2ccccc21 here?
Answer: inconclusive [inhibitor, partial curve]

Question: Cc1ccc2c(c1)CCCN2C(=O)c1ccc2c(c1)OCO2 was tested. Which Potency did it give?
Answer: inconclusive [inhibitor, single point]

Question: C=CCOC(=O)N[C@H](c1cccc(C(F)(F)F)c1)C(C(C)=O)C(C)=O was tested. Which Potency did it give?
Answer: inactive

Question: Which Potency does the source give for COC(CNC(=O)c1cc(Sc2nnc(C)s2)nc2ccccc12)OC here?
Answer: inconclusive [inhibitor, single point]

Question: How did the Potency turn out when Cc1noc2ncnc(N3CCCCC3)c12 was run?
Answer: active: 31.6 µM

Question: Which Potency does the source give for COCCNc1nc(C)nc2c1nc(-c1ccccc1)n2CCN(C)C here?
Answer: inconclusive [inhibitor, partial curve]

Question: Clc1cccc(N/N=C/c2ccc(N3CCOCC3)s2)c1 was tested. Which Potency did it give?
Answer: active: 11.2 µM

Question: With CN(C)c1ncc2nc(CCc3ccccc3)c(=O)n(C[C@H]3CCCO3)c2n1 as the molecule, how does the Potency read?
Answer: inconclusive [inhibitor, partial curve]

Question: With CCC(C)NS(=O)(=O)c1ccc(NC(=O)c2cccs2)cc1 (centres undefined) as the molecule, how does the Potency read?
Answer: inactive

Question: How did the Potency turn out when O=C(CC1C(=O)NCCN1CC1CCCCC1)NCc1cccc(F)c1F (centres undefined) was run?
Answer: inconclusive [inhibitor, single point]

Question: With CNc1nnc(-c2ccc(N(C)C)cc2)s1 as the molecule, how does the Potency read?
Answer: inconclusive [inhibitor, partial curve]

Question: Which Potency does the source give for CCCOc1ccc(C(=O)CCN2CCN(C(=O)OCC)CC2)cc1 here?
Answer: active: 0.708 µM

Question: With COc1cccc(N2CCN(C(=O)c3cccnc3)CC2)c1 as the molecule, how does the Potency read?
Answer: inconclusive [inhibitor, single point]

Question: For O=C(O)CCc1nn2c3ccccc3n(CCN3CCCCC3)c2nc1=O, which Potency is on record?
Answer: inconclusive [inhibitor, single point]

Question: Which Potency does the source give for Cc1ccc(N2C(=O)[C@@H]3[C@H](C2=O)[C@H]2C=CC=NN2[C@@H]3C(=O)Nc2ccccc2)cc1 here?
Answer: active: 25.1 µM

Question: How did the Potency turn out when CC(=O)CC(C)=NCCN=C(C)CC(C)=O was run?
Answer: inactive

Question: For COc1ccc(-c2cc(C(F)(F)F)nc(SCC(=O)Nc3ccc4c(c3)OCO4)n2)cc1, which Potency is on record?
Answer: inactive

Question: Which Potency does the source give for COc1ccc(NC(=O)N2CC3(CCN(C(=O)c4c(C)noc4C)CC3)C2)cc1 here?
Answer: inconclusive [inhibitor, single point]

Question: How did the Potency turn out when CCCS(=O)(=O)N1CCN(CC2CC=CCC2)CC1 (centres undefined) was run?
Answer: inactive

Question: For N#Cc1nc(COc2ccc(Cl)cc2Cl)oc1N1CCOCC1, which Potency is on record?
Answer: inconclusive [inhibitor, single point]

Question: For CCC1=C(OC(=O)N(CC)CC)N2C(=O)OC(=NCC(=O)OC)[C@]2(Cc2ccccc2)[C@H]2C1=CC[C@H]1C(=O)N(CC(=O)OC)C(=O)[C@H]12, which Potency is on record?
Answer: inconclusive [inhibitor, full curve, poor fit]

Question: How did the Potency turn out when CN1/C(=C\C(=O)c2ccccc2Cl)c2ccccc2CC1(C)C was run?
Answer: inactive

Question: NC(=O)N/N=C/c1coc2ccc(O)cc2c1=O was tested. Which Potency did it give?
Answer: active: 17.8 µM

Question: Cc1c(-c2ccccc2)oc2c(C(=O)OCC(=O)Nc3ccc(F)cc3)cccc2c1=O was tested. Which Potency did it give?
Answer: inactive

Question: How did the Potency turn out when CCN1CCN(C(=O)c2sc3nc(C)nc(N4CCC(C)CC4)c3c2C)CC1 was run?
Answer: inactive

Question: COc1ccc2cc(CN(CC3CCCO3)S(=O)(=O)c3ccccc3)c(=O)[nH]c2c1 (centres undefined) was tested. Which Potency did it give?
Answer: inactive

Question: How did the Potency turn out when O=C(O)c1ccccc1C(=O)Nc1ccc(Oc2ccccc2)cc1 was run?
Answer: inactive

Question: For O=C(NCc1cccc(F)c1)C1CCN(C(=O)c2sccc2-n2cccc2)CC1, which Potency is on record?
Answer: active: 5.01 µM

Question: For O=C1CC(NCc2ccco2)C(=O)N1CCc1ccccc1 (centres undefined), which Potency is on record?
Answer: inactive

Question: For CCOC(=O)C(=NC(C)C)NNc1cc(Cl)ccc1Cl, which Potency is on record?
Answer: inactive

Question: For COc1ccc(-n2nc3c(c2NC(=O)Cc2cccc(C)c2)CS(=O)C3)cc1 (centres undefined), which Potency is on record?
Answer: inconclusive [inhibitor, single point]

Question: With CCOc1ccccc1NC(=O)N1CCCC(c2nc3c(nnn3Cc3ccc(C)cc3)c(=O)[nH]2)C1 (centres undefined) as the molecule, how does the Potency read?
Answer: inconclusive [inhibitor, single point]

Question: How did the Potency turn out when CC(C)OC(=O)CSc1nc2cccnc2n1-c1ccc(F)cc1 was run?
Answer: inconclusive [inhibitor, single point]

Question: How did the Potency turn out when Cc1cc(NC(=O)Cn2c(=O)n(Cc3ccccc3)c(=O)c3ccccc32)no1 was run?
Answer: inconclusive [inhibitor, single point]

Question: How did the Potency turn out when Cc1ccc(C)c(S(=O)(=O)N/N=C/c2ccc(N(C)C)cc2)c1 was run?
Answer: inconclusive [inhibitor, single point]

Question: COc1ccc(CNc2nc(-c3cccnc3)nn2S(C)(=O)=O)cc1 was tested. Which Potency did it give?
Answer: inconclusive [inhibitor, single point]

Question: With O=C(CSc1ccc(-c2ccccn2)nn1)N1CCCc2ccccc21 as the molecule, how does the Potency read?
Answer: inconclusive [inhibitor, single point]

Question: With O=C(O)CCCNc1cc(N2CCC3(CC2)OCCO3)c2noc3c2c1C(=O)c1ccccc1-3 as the molecule, how does the Potency read?
Answer: inconclusive [inhibitor, single point]

Question: For CC(C)COC(=O)/C(C#N)=C/c1cn(Cc2ccccc2)c2ccccc12, which Potency is on record?
Answer: inconclusive [inhibitor, single point]

Question: How did the Potency turn out when Cc1nnc(SCC(=O)Nc2ccccc2C(=O)NC2CC2)s1 was run?
Answer: inactive

Question: For Cc1cc(C(=O)c2ccc(C(C)(C)C)cc2)c(NC(=O)CCl)s1, which Potency is on record?
Answer: active: 11.2 µM

Question: With COc1ccc(OC)c(N)c1 as the molecule, how does the Potency read?
Answer: inconclusive [inhibitor, single point]

Question: Which Potency does the source give for Cc1ccc(-n2ncc3c(=O)n(CC(=O)N4CCCc5ccccc54)cnc32)cc1C here?
Answer: inconclusive [inhibitor, partial curve]

Question: With Fc1ccccc1N1CCN(CCCNc2ccc3nncn3n2)CC1 as the molecule, how does the Potency read?
Answer: inactive

Question: How did the Potency turn out when CC(C)c1ccc(NC(=O)C(c2ccccc2)N2CCOCC2)cc1 (centres undefined) was run?
Answer: inconclusive [inhibitor, single point]

Question: For CCC(CC)C(=O)Nc1cccc(C(=O)NCCc2ccc(S(N)(=O)=O)cc2)c1, which Potency is on record?
Answer: inactive

Question: With O=C(NCC1OCCc2ccccc21)c1ccc(NC(=O)c2ccc(Cl)cc2)cc1 (centres undefined) as the molecule, how does the Potency read?
Answer: inactive

Question: Which Potency does the source give for Cc1ccc(O)c(-n2nc3ccccc3n2)c1 here?
Answer: inactive

Question: Cc1cccc(N2CCN(Cc3nc(-c4ccc(F)cc4F)oc3C)CC2)n1 was tested. Which Potency did it give?
Answer: inconclusive [inhibitor, single point]

Question: For Cc1ccc(-c2ccc3nnc(SCC(N)=O)n3n2)cc1, which Potency is on record?
Answer: inconclusive [inhibitor, partial curve]

Question: COc1ccc(-c2cnnc(N/N=C/c3ccc(O)cc3)n2)cc1 was tested. Which Potency did it give?
Answer: inactive

Question: Which Potency does the source give for CCOC(=O)Nc1ccc2c(COC(=O)CNS(=O)(=O)c3ccc(NC(C)=O)cc3)cc(=O)oc2c1 here?
Answer: inconclusive [inhibitor, partial curve]

Question: Which Potency does the source give for Cc1onc(-c2ccccc2)c1CNS(=O)(=O)c1cccc(Cl)c1 here?
Answer: inconclusive [inhibitor, full curve, poor fit]

Question: With C=CCSC1=C(C#N)C(c2ccccc2OC)CC(=O)N1 (centres undefined) as the molecule, how does the Potency read?
Answer: inconclusive [inhibitor, single point]

Question: Clc1ncnc2scc(C3COc4ccccc4O3)c12 (centres undefined) was tested. Which Potency did it give?
Answer: active: 17.8 µM

Question: How did the Potency turn out when Cc1ccc(S(=O)(=O)N(CC(=O)NCc2ccco2)Cc2ccccc2F)cc1 was run?
Answer: inconclusive [inhibitor, single point]

Question: COC(=O)Cc1c(C)nc2nc(-c3ccc(OC)cc3)[nH]n2c1=O was tested. Which Potency did it give?
Answer: inconclusive [inhibitor, partial curve]

Question: How did the Potency turn out when CCN1CCN(Cc2cc(=O)oc3cc(C)cc(C)c23)CC1 was run?
Answer: inactive

Question: COCCOC(=O)c1c(C)nc(SCC(=O)Nc2cccc3ccccc23)c(C#N)c1-c1ccco1 was tested. Which Potency did it give?
Answer: inconclusive [inhibitor, single point]
